Reference: US9873709B2 (priority 2013, dated 2018)

Target: isolated recombinant JAK1 kinase domain (Homo sapiens (Human), UniProt P23458)
Settings: read-out: JAK1 Ki; isolated recombinant JAK1 kinase domain, 25 μM ATP

Ki [nM] | SMILES
1.48 | CN(CCc1ccncc1)C(=O)c1ccc(Nc2nc3c(N4CCC(O)(c5ccc(Cl)cc5)CC4)cccn3n2)cc1 [Example 1-135, 4-[[8-[4-(4-chlorophenyl)-4-hydroxy-1-piperidyl]-[1,2,4]triazolo[1,5-a]pyridin-2-yl]amino]-N-methyl-N-[2-(4-pyridyl)ethyl]benzamide]
3.42 | O=C(c1ccc(Nc2nc3c(N4CCC(O)(c5ccc(Cl)cc5)CC4)cccn3n2)cc1)N1CCN(CC2CC2)CC1 [Example 1-136, [4-[[8-[4-(4-chlorophenyl)-4-hydroxy-1-piperidyl]-[1,2,4]triazolo[1,5-a]pyridin-2-yl]amino]phenyl]-[4-(cyclopropylmethyl)piperazin-1-yl]methanone]
3.88 | O=C(c1ccc(Nc2nc3c(N4CCC(O)(c5ccc(Cl)cc5)CC4)cccn3n2)cc1)N1CCN2CCCCC2C1 (centres unmarked) [Example 1-137, 1,3,4,6,7,8,9,9a-octahydropyrido[1,2-a]pyrazin-2-yl-[4-[[8-[4-(4-chlorophenyl)-4-hydroxy-1-piperidyl]-[1,2,4]triazolo[1,5-a]pyridin-2-yl]amino]phenyl]methanone]
1.53 | CN(Cc1cccnc1)C(=O)c1ccc(Nc2nc3c(N4CCC(O)(c5ccc(Cl)cc5)CC4)cccn3n2)cc1 [Example 1-138, 4-[[8-[4-(4-chlorophenyl)-4-hydroxy-1-piperidyl]-[1,2,4]triazolo[1,5-a]pyridin-2-yl]amino]-N-methyl-N-(3-pyridylmethyl)benzamide]
2.48 | CN(C)CCN1CCN(C(=O)c2ccc(Nc3nc4c(N5CCC(O)(c6ccc(Cl)cc6)CC5)cccn4n3)cc2)CC1 [Example 1-139, [4-[[8-[4-(4-chlorophenyl)-4-hydroxy-1-piperidyl]-[1,2,4]triazolo[1,5-a]pyridin-2-yl]amino]phenyl]-[4-[2-(dimethylamino)ethyl]piperazin-1-yl]methanone]
4.88 | Cc1cccc(C(C)NC(=O)c2ccc(Nc3nc4c(N5CCC(O)(c6ccc(Cl)cc6)CC5)cccn4n3)cc2)n1 (centres unmarked) [Example 1-140, 4-[[8-[4-(4-chlorophenyl)-4-hydroxy-1-piperidyl]-[1,2,4]triazolo[1,5-a]pyridin-2-yl]amino]-N-[1-(6-methyl-2-pyridyl)ethyl]benzamide]
1.71 | CN1CCCC(CNC(=O)c2ccc(Nc3nc4c(N5CCC(O)(c6ccc(Cl)cc6)CC5)cccn4n3)cc2)C1 (centres unmarked) [Example 1-141, 4-[[8-[4-(4-chlorophenyl)-4-hydroxy-1-piperidyl]-[1,2,4]triazolo[1,5-a]pyridin-2-yl]amino]-N-[(1-methyl-3-piperidyl)methyl]benzamide]
3.11 | O=C(c1ccc(Nc2nc3c(N4CCC(O)(c5ccc(Cl)cc5)CC4)cccn3n2)cc1)N(Cc1ccccn1)C1CC1 [Example 1-142, 4-[[8-[4-(4-chlorophenyl)-4-hydroxy-1-piperidyl]-[1,2,4]triazolo[1,5-a]pyridin-2-yl]amino]-N-cyclopropyl-N-(2-pyridylmethyl)benzamide]
3.49 | O=C(c1ccc(Nc2nc3c(N4CCC(O)(c5ccc(Cl)cc5)CC4)cccn3n2)cc1)N1CCCC(N2CCOCC2)C1 (centres unmarked) [Example 1-143, [4-[[8-[4-(4-chlorophenyl)-4-hydroxy-1-piperidyl]-[1,2,4]triazolo[1,5-a]pyridin-2-yl]amino]phenyl]-(3-morpholino-1-piperidyl)methanone]
4.24 | O=C(c1ccc(Nc2nc3c(N4CCC(O)(c5ccc(Cl)cc5)CC4)cccn3n2)cc1)N1CCC(c2ccccn2)CC1 [Example 1-144, [4-[[8-[4-(4-chlorophenyl)-4-hydroxy-1-piperidyl]-[1,2,4]triazolo[1,5-a]pyridin-2-yl]amino]phenyl]-[4-(2-pyridyl)-1-piperidyl]methanone]
5.76 | O=C(c1ccc(Nc2nc3c(N4CCC(O)(c5ccc(Cl)cc5)CC4)cccn3n2)cc1)N1CCC(Cc2cccnc2)CC1 [Example 1-145, [4-[[8-[4-(4-chlorophenyl)-4-hydroxy-1-piperidyl]-[1,2,4]triazolo[1,5-a]pyridin-2-yl]amino]phenyl]-[4-(3-pyridylmethyl)-1-piperidyl]methanone]
3.05 | O=C(c1ccc(Nc2nc3c(N4CCC(O)(c5ccc(Cl)cc5)CC4)cccn3n2)cc1)N1CCC(Cc2ccncc2)C1 (centres unmarked) [Example 1-146, [4-[[8-[4-(4-chlorophenyl)-4-hydroxy-1-piperidyl]-[1,2,4]triazolo[1,5-a]pyridin-2-yl]amino]phenyl]-[3-(4-pyridylmethyl)pyrrolidin-1-yl]methanone]
2.1 | O=C(c1ccc(Nc2nc3c(N4CCC(O)(c5ccc(Cl)cc5)CC4)cccn3n2)cc1)N1CCCC1c1ccncc1 (centres unmarked) [Example 1-147, [4-[[8-[4-(4-chlorophenyl)-4-hydroxy-1-piperidyl]-[1,2,4]triazolo[1,5-a]pyridin-2-yl]amino]phenyl]-[2-(4-pyridyl)pyrrolidin-1-yl]methanone]
5.65 | O=C(c1ccc(Nc2nc3c(N4CCC(O)(c5ccc(Cl)cc5)CC4)cccn3n2)cc1)N1CCOC(c2ccccn2)C1 (centres unmarked) [Example 1-148, [4-[[8-[4-(4-chlorophenyl)-4-hydroxy-1-piperidyl]-[1,2,4]triazolo[1,5-a]pyridin-2-yl]amino]phenyl]-[2-(2-pyridyl)morpholin-4-yl]methanone]
8.96 | O=C(c1ccc(Nc2nc3c(N4CCC(O)(c5ccc(Cl)cc5)CC4)cccn3n2)cc1)N1CCCC(c2ccccn2)C1 (centres unmarked) [Example 1-149, [4-[[8-[4-(4-chlorophenyl)-4-hydroxy-1-piperidyl]-[1,2,4]triazolo[1,5-a]pyridin-2-yl]amino]phenyl]-[3-(2-pyridyl)-1-piperidyl]methanone]
5.59 | CNC(=O)C1CN(C(=O)c2ccc(Nc3nc4c(N5CCC(O)(c6ccc(Cl)cc6)CC5)cccn4n3)cc2)CCN1CCc1ccccc1 (centres unmarked) [Example 1-150]
2.8 | CN(C)c1cc(CC2CCN(C(=O)c3ccc(Nc4nc5c(N6CCC(O)(c7ccc(Cl)cc7)CC6)cccn5n4)cc3)C2)ncn1 (centres unmarked) [Example 1-151, [4-[[8-[4-(4-chlorophenyl)-4-hydroxy-1-piperidyl]-[1,2,4]triazolo[1,5-a]pyridin-2-yl]amino]phenyl]-[3-[[6-(dimethylamino)pyrimidin-4-yl]methyl]pyrrolidin-1-yl]methanone]
2.79 | CNC(=O)C1CN(C)CCN1C(=O)c1ccc(Nc2nc3c(N4CCC(O)(c5ccc(Cl)cc5)CC4)cccn3n2)cc1 (centres unmarked) [Example 1-152, 1-[4-[[8-[4-(4-chlorophenyl)-4-hydroxy-1-piperidyl]-[1,2,4]triazolo[1,5-a]pyridin-2-yl]amino]benzoyl]-N,4-dimethyl-piperazine-2-carboxamide]
2.43 | CNC(=O)C1CN(C(=O)c2ccc(Nc3nc4c(N5CCC(O)(c6ccc(Cl)cc6)CC5)cccn4n3)cc2)CCN1Cc1ccccc1 (centres unmarked) [Example 1-153, 1-benzyl-4-[4-[[8-[4-(4-chlorophenyl)-4-hydroxy-1-piperidyl]-[1,2,4]triazolo[1,5-a]pyridin-2-yl]amino]benzoyl]-N-methyl-piperazine-2-carboxamide]
1.98 | CN1CCC(CCNC(=O)c2ccc(Nc3nc4c(N5CCC(O)(c6ccc(Cl)cc6)CC5)cccn4n3)cc2)CC1 [Example 1-154, 4-[[8-[4-(4-chlorophenyl)-4-hydroxy-1-piperidyl]-[1,2,4]triazolo[1,5-a]pyridin-2-yl]amino]-N-[2-(1-methyl-4-piperidyl)ethyl]benzamide]
